These are literature values, as cited in PMC11006913.

The other results are listed elsewhere or left out.

Holding throughout (settings): PBM; conditions not shown; double strand, one strand shown; scale: upbm affinity estimate (log intensity, higher = more binding, comparable within an allelic series)
The target in data set [1] is NKX2-5 K183E (Homo sapiens) (UniProt P52952).
The target in data set [2] is NKX2-5 R161P (Homo sapiens) (UniProt P52952).
Data set [3] deals with NKX2-5 R190C (Homo sapiens) (UniProt P52952).

Turning to ACACTTAT [8-mer ACACTTAT], the binding signal in data set [1] was 11.5; in data set [2], 12.8; in data set [3], 11.1.

For AAGTGAGC [8-mer AAGTGAGC], the binding signal in data set [1] is 10.7.

Regarding AAGGACTT [8-mer AAGGACTT], in data set [1], the binding signal was 10.6.

On to CTAAGGAC [8-mer CTAAGGAC], for which the binding signal in data set [1] is 10.6.

As to CACTTAAA [8-mer CACTTAAA], the binding signal in data set [1] is 11.7; in data set [2], 12.7; in data set [3], 10.9.

Consider CAAGTACA [8-mer CAAGTACA], for which the binding signal in data set [1] is 11.1; in data set [2] it was 12.2; in data set [3], 10.8.

As for GCTGGGTA [8-mer GCTGGGTA], the binding signal in data set [1] was 10.3; in data set [2] it was 10.4; in data set [3], 10.4.

In the case of CGCGGCTA [8-mer CGCGGCTA], the figures for the binding signal in data set [1], in data set [2] and in data set [3] were 10.2, 10.3 and 10.2, respectively.

In the case of CACAAGTG [8-mer CACAAGTG], the binding signal in data set [1] was 11.5; in data set [2], 12.6; in data set [3] it was 10.8.

In the case of CCAGGCCC [8-mer CCAGGCCC], the binding signal in data set [1] is 10.2; in data set [2] it was 10.3; in data set [3], 10.1.

In the case of AGAGCACT [8-mer AGAGCACT], the binding signal was 10.8 in data set [1], 11.9 in data set [2] and 10.5 in data set [3].

For the sequence CCCGGCCG [8-mer CCCGGCCG], the binding signal in data set [1] was 9.87; in data set [2], 9.89; in data set [3], 9.89.

AGGCTCGG [8-mer AGGCTCGG]: the binding signal in data set [1], in data set [2] and in data set [3] was 10.2 in each case.

For AAGTGCGC [8-mer AAGTGCGC], in data set [1], the binding signal is 10.6.

As to CGAGTGTC [8-mer CGAGTGTC], the binding signal in data set [1] is 10.5.

In the case of ACCCCCAT [8-mer ACCCCCAT], the binding signal in data set [1] is 10.2; in data set [2], 10.3; in data set [3], 9.96.

Consider AAGTGGCT [8-mer AAGTGGCT], for which the binding signal in data set [1] was 11.8; in data set [2], 12.5; in data set [3], 10.5.

For AACACTTA [8-mer AACACTTA], the figures for the binding signal in data set [1], in data set [2] and in data set [3] were 11.4, 12.7 and 10.9, respectively.

Consider AAGTGGGA [8-mer AAGTGGGA], for which the binding signal in data set [1] was 11.6.

Take AATAAGTG [8-mer AATAAGTG]: the binding signal was 11.6 in data set [1], 12.6 in data set [2] and 11 in data set [3].

With GCTCCTGA [8-mer GCTCCTGA], the binding signal in data set [1], in data set [2] and in data set [3] was 10.1 throughout.

Turning to AAGTGGAC [8-mer AAGTGGAC], the binding signal is 11.3 in data set [1], 12.5 in data set [2] and 10.5 in data set [3].

With CCCTCTTA [8-mer CCCTCTTA], the binding signal in data set [1] is 11.5.

With AGGGCACT [8-mer AGGGCACT], the binding signal in data set [1] is 10.5.

Regarding AAGTACCC [8-mer AAGTACCC], the values for the binding signal in data set [1] and in data set [2] were 10.8 and 12.6, respectively.

For the sequence CCTCTTAG [8-mer CCTCTTAG], in data set [1], the binding signal was 11.5.

As to CTGAGTAC [8-mer CTGAGTAC], the binding signal in data set [1] is 10.6.

Turning to CTCAAGTA [8-mer CTCAAGTA], the binding signal in data set [1] is 11.3; in data set [2], 12.7; in data set [3] it was 10.8.

Consider GGCGCACA [8-mer GGCGCACA], for which the binding signal in data set [1] is 10.5; in data set [2], 10.6; in data set [3] it was 10.3.

Take CGTTCCGC [8-mer CGTTCCGC]: the binding signal is 10.2 in data set [1], 10.1 in data set [2] and 10.2 in data set [3].

For CCGGTCAG [8-mer CCGGTCAG], the binding signal in data set [1] was 9.98; in data set [2] it was 10.1; in data set [3], 10.1.

As for ACCTCTTA [8-mer ACCTCTTA], in data set [1], the binding signal was 11.8.

Take CCGATCGC [8-mer CCGATCGC]: the binding signal is 10.2 in data set [1], 10.3 in data set [2] and 10.3 in data set [3].

Take CACTTGAC [8-mer CACTTGAC]: the binding signal in data set [1] was 11.8; in data set [2] it was 13; in data set [3] it was 10.6.

Turning to ATAAGTGC [8-mer ATAAGTGC], the binding signal was 11.6 in data set [1], 13.1 in data set [2] and 10.9 in data set [3].

Turning to TAAGTGGA [8-mer TAAGTGGA], the results for the binding signal in data set [1], in data set [2] and in data set [3] were 12.1, 13.3 and 10.9, respectively.

Take ACCACGGC [8-mer ACCACGGC]: the binding signal in data set [1] is 10.3; in data set [2], 10.4; in data set [3] it was 10.4.

As for CGAGCACG [8-mer CGAGCACG], the figures for the binding signal in data set [1], in data set [2] and in data set [3] were 10.2, 10.3 and 10.3, respectively.

As to AAGTGGAT [8-mer AAGTGGAT], the values for the binding signal in data set [1], in data set [2] and in data set [3] were 11.6, 12.7 and 10.6, respectively.

Turning to CTTCCGTC [8-mer CTTCCGTC], the values for the binding signal in data set [1], in data set [2] and in data set [3] were 10.2, 10.3 and 10.4, respectively.

As for ACACTTAG [8-mer ACACTTAG], the binding signal in data set [1] was 11.3; in data set [2], 12.6; in data set [3] it was 10.9.

As to CCACCACG [8-mer CCACCACG], the binding signal in data set [1] is 10.4; in data set [2], 10.4; in data set [3] it was 10.3.

On to CTGGTCCC [8-mer CTGGTCCC], for which the binding signal in data set [1] was 10.1; in data set [2], 10.3; in data set [3] it was 10.1.

As to CAGGGAAG [8-mer CAGGGAAG], the binding signal in data set [1] is 10.2; in data set [2], 10.1; in data set [3] it was 10.2.

Regarding GTACTTAA [8-mer GTACTTAA], the binding signal in data set [1] is 11.4; in data set [2], 12.9; in data set [3] it was 11.1.

Regarding GCTCTTGA [8-mer GCTCTTGA], the binding signal was 10.8 in data set [1], 12 in data set [2] and 10.3 in data set [3].

On to CGGCCTGA [8-mer CGGCCTGA], for which the binding signal is 10.1 in data set [1], 10.2 in data set [2] and 10.1 in data set [3].

On to CTGAGGCA [8-mer CTGAGGCA], for which the binding signal in data set [1], in data set [2] and in data set [3] was 10.4 in each case.

As to CTGGGGGA [8-mer CTGGGGGA], the binding signal is 10.2 in data set [1], 10.4 in data set [2] and 10.1 in data set [3].

On to GCACTTAA [8-mer GCACTTAA], for which the results for the binding signal in data set [1], in data set [2] and in data set [3] were 11.6, 13.1 and 10.9, respectively.

On to AAGTGGTA [8-mer AAGTGGTA], for which the binding signal in data set [1] is 11.9; in data set [2], 12.7; in data set [3] it was 10.8.

Turning to AAGTGCCC [8-mer AAGTGCCC], the figures for the binding signal in data set [1], in data set [2] and in data set [3] were 11, 12.5 and 10.3, respectively.

Consider AACGCCGG [8-mer AACGCCGG], for which the binding signal is 10.2 in data set [1], 10.3 in data set [2] and 10.1 in data set [3].

Take CTTAAGTA [8-mer CTTAAGTA]: the binding signal was 11.3 in data set [1], 12.5 in data set [2] and 10.8 in data set [3].

On to AAGTGGGC [8-mer AAGTGGGC], for which the binding signal in data set [1] was 11.5; in data set [2], 12.5; in data set [3], 10.5.

Regarding CCACTCGA [8-mer CCACTCGA], the binding signal in data set [1] is 11.5; in data set [2], 12.4; in data set [3], 10.5.

For the sequence GACCCCGC [8-mer GACCCCGC], the binding signal in data set [1] was 10.2; in data set [2], 10.2; in data set [3], 10.1.

Take ACCCGCCC [8-mer ACCCGCCC]: the binding signal in data set [1] is 10.4; in data set [2], 10.4; in data set [3] it was 10.2.

For the sequence CTGGACGC [8-mer CTGGACGC], the results for the binding signal in data set [1], in data set [2] and in data set [3] were 10.1, 10.2 and 10.2, respectively.

CCCGCGCG [8-mer CCCGCGCG]: the binding signal in data set [1], in data set [2] and in data set [3] was 10.2 each time.

Consider CAGCAGAC [8-mer CAGCAGAC], for which the figures for the binding signal in data set [1], in data set [2] and in data set [3] were 10.2, 10.3 and 10.3, respectively.

Regarding CCCGCGTC [8-mer CCCGCGTC], the binding signal in data set [1] is 10.2; in data set [2] it was 10.1; in data set [3], 10.2.
